{
  "source": "PubChem BioAssay AID1347044",
  "about": "(National Center for Advancing Translational Sciences (NCATS), 2019)",
  "note": "“And” between values parts separate entries of the source, which are not always exact repeats. Identical values can stand only once. Some of the results follow. These are further read-outs of the screen, such as a control signal, another cell line or another target. No call is given for them. Compounds called inactive in the main read-out are mostly missing here. The note in brackets gives the kind of curve behind each potency; many fits are weak. Tags tell the direction and shape of the fitted curve.",
  "data": [
    {"test": "Natriuretic polypeptide receptor (hNpr1) antagonism - Confirmation; also: nearly all actives have a fitted effect of over 70% in size", "conditions": "HEK293 hNpr1 cGMP GloSensor luminescence, ANP-stimulated; measured here: HEK-hNpr1 cytotoxicity, CellTiter-Glo", "method_in_brief": "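Compound (30 min, room temperature) preceded stimulation with hNppA peptide at 0.1 nM final for 20 min. Cells were HEK293 carrying hNpr1 plus GloSensor pGS-40F cGMP biosensor, pre-equilibrated 2 h with 2% substrate; cGMP was followed as luminescence pre- and post-agonist.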", "values": [
      {"molecule": "O=C(N1CCOCC1)N1C2CCC1CN(c1ccc(C(F)(F)F)cc1)C2", "CC50": "21.7 µM [falling, partial curve]"},
      {"molecule": "O=C(Nc1cccc(Br)c1)C1CCN(c2cc(C(F)(F)F)ncn2)CC1", "CC50": "30.6 µM [falling, single point]"},
      {"molecule": "CCc1cccc(NC(=O)Cn2c(N(C)Cc3ccccc3)nc(C)cc2=O)c1", "CC50": "15.3 µM [falling, partial curve]"},
      {"molecule": "O=C(NCCCc1ccccc1)C1CCN(c2cc(C(F)(F)F)ncn2)CC1", "CC50": "19.3 µM [falling, partial curve]"},
      {"molecule": "CC(Oc1ccccc1)C(=O)N1CCC(n2cc(-c3nc(-c4ccccc4)no3)nn2)CC1", "note": "(stereo not given)", "CC50": "24.3 µM [falling, partial curve]"},
      {"molecule": "COCc1nc(-c2ccc(OC3CCN(Cc4ccc(C(F)(F)F)cc4)C3)cc2)no1", "note": "(stereo not given)", "CC50": "10.9 µM [falling, partial curve]"},
      {"molecule": "Cc1noc(C)c1CN1CCc2nc(C(=O)Nc3cccc(C(F)(F)F)c3)oc2CC1", "CC50": "31.4 µM [falling, partial curve]"},
      {"molecule": "COc1ccc(-c2noc(CC3CCN(C(=O)c4ccc5c(c4)OCO5)CC3)n2)cc1", "CC50": "6.11 µM [falling, full curve]"},
      {"molecule": "CN(C)c1ccc(C(=O)N2CCC3(CC2)N=C(c2ccc(Br)cc2)NO3)cc1", "CC50": "24.3 µM [falling, partial curve]"},
      {"molecule": "O=C(CCC1CCCN(S(=O)(=O)c2ccccc2)C1)N1CCN(c2ccccn2)CC1", "note": "(stereo not given)", "CC50": "21.7 µM [falling, partial curve]"},
      {"molecule": "COc1ccc(-c2noc(CC3CCN(C(=O)CCc4ccccc4)CC3)n2)cc1", "CC50": "24.3 µM [falling, partial curve]"},
      {"molecule": "Cc1cccc2c1nc1n2[C@@H](CNS(=O)(=O)Cc2ccccc2)COC1", "CC50": "35.3 µM [falling, partial curve]"},
      {"molecule": "CC1=NS(=O)(=O)N(C)C=C1C(=O)OCc1noc(-c2cccs2)n1", "CC50": "27.3 µM [falling, single point]"},
      {"molecule": "CC1=C[C@@H](CN2CCN(c3ncccn3)CC2)[C@H](C(C)C)C[C@H]1Cc1nnc(-c2ccccc2F)o1", "CC50": "24.3 µM [falling, partial curve]"},
      {"molecule": "CCOc1ccccc1C(=O)N1CCC(Cc2nc(-c3ccc(OC)cc3)no2)CC1", "CC50": "19.3 µM [falling, partial curve]"},
      {"molecule": "O=C(Nc1ccc(Cl)cc1)c1nc2c(o1)CCN(CC1CCCC1)CC2", "CC50": "31.4 µM [falling, partial curve]"},
      {"molecule": "NS(=O)(=O)c1ccc(CCNC(=O)c2cc3n(n2)CC(c2ccc(Cl)cc2)OC3)cc1", "note": "(stereo not given)", "CC50": "24.3 µM [falling, partial curve]"},
      {"molecule": "COc1cccc(-c2noc(CC3CCN(C(=O)c4ccccc4C)CC3)n2)c1", "CC50": "19.3 µM [falling, partial curve]"},
      {"molecule": "O=C(NCc1ccc(N2CCCC2)cc1)C1CCCN(c2cnn(Cc3ccccc3)c(=O)c2)C1", "note": "(stereo not given)", "CC50": "27.3 µM [falling, single point]"},
      {"molecule": "CN(Cc1ccccc1)C(=O)c1ccc2c(c1)NC(C)(COc1cccnc1)CO2", "note": "(stereo not given)", "CC50": "28 µM [falling, partial curve]"},
      {"molecule": "Cc1ncsc1CN1CCC2(CC1)CC(Cc1nc(-c3ccccc3)no1)CCO2", "note": "(stereo not given)", "CC50": "15.3 µM [falling, partial curve]"},
      {"molecule": "COc1cccc(CN2CCN(c3nc4c(s3)c(C)nn4C)CC2=O)c1", "CC50": "21.7 µM [falling, partial curve]"},
      {"molecule": "Cc1ccc2nc(C3CCCN(Cc4ccc(C#N)cc4)C3)[nH]c(=O)c2c1", "note": "(stereo not given)", "CC50": "21.7 µM [falling, partial curve]"},
      {"molecule": "CC(C)c1ccc(CNC(=O)c2ccc(CN3C(=O)NC4(CCOCC4)C3=O)cc2)cc1", "CC50": "24.3 µM [falling, partial curve, poor fit]"},
      {"molecule": "COc1cccc(CC(=O)N2CCCN(c3cc(-c4ccc(Br)cc4)[nH]n3)CC2)c1", "CC50": "24.3 µM [falling, partial curve]"},
      {"molecule": "O=C(c1ccncc1)N1CC2CCC(C1)N2Cc1ccc(-c2ccsc2)cc1", "CC50": "6.85 µM [falling, full curve] and 6.85 µM [falling, partial curve]"},
      {"molecule": "CC(C)(C)C(=O)N[C@H]1C[C@@H](Cc2cc(CN3CCN(c4ccccc4)CC3)on2)C1(C)C", "CC50": "17.2 µM [falling, partial curve]"},
      {"molecule": "O=C(c1ccc(F)c(Cl)c1)N1CCC(n2cc(-c3nc(-c4ccccc4)no3)nn2)CC1", "CC50": "24.3 µM [falling, partial curve]"},
      {"molecule": "O=C(c1ccccc1)N1CCN(c2cc(-c3ccc(Cl)cc3)[nH]n2)CC1", "CC50": "34.3 µM [falling, single point]"},
      {"molecule": "CN(C)c1ccc(CN[C@H]2CO[C@H]3[C@@H]2OC[C@H]3OC(=O)Nc2ccc(Oc3ccccc3)cc2)cc1", "CC50": "19.3 µM [falling, partial curve]"},
      {"molecule": "COc1c(C)cccc1C(=O)N1CCOC(c2ccc(Cl)c(Cl)c2)C1", "note": "(stereo not given)", "CC50": "13.7 µM [falling, partial curve]"},
      {"molecule": "O=C1c2cnc(-c3ccc(Cl)cc3)nc2OCCN1Cc1ccccc1", "CC50": "39.6 µM [falling, partial curve]"},
      {"molecule": "CCCOc1ccccc1C(=O)N1CCc2onc(-c3ccccc3)c2C1", "CC50": "38.5 µM [falling, single point]"},
      {"molecule": "O=C(Cc1ccccc1Cl)N1CCC(Cc2nc(-c3ccc(F)cc3)no2)CC1", "CC50": "27.3 µM [falling, single point]"},
      {"molecule": "CCc1ccc(NC(=O)c2cc3n(n2)CC(c2ccc(Cl)cc2)OC3)cc1", "note": "(stereo not given)", "CC50": "24.3 µM [falling, partial curve, poor fit]"},
      {"molecule": "CC(C)c1ccc(NC(=O)N[C@H]2CO[C@H]3[C@@H]2OC[C@H]3OC(=O)Nc2ccc(Oc3ccccc3)cc2)cc1", "CC50": "17.2 µM [falling, partial curve]"},
      {"molecule": "CCOc1ccc(C(=O)N2CCN(c3cc(-c4ccc(Cl)cc4)[nH]n3)CC2)cc1", "CC50": "15.3 µM [falling, partial curve]"},
      {"molecule": "CC1(C(=O)NCc2ccc3c(c2)OCO3)CCc2cnc(NCc3ccccc3)nc21", "note": "(stereo not given)", "CC50": "35.3 µM [falling, partial curve]"},
      {"molecule": "O=C(Nc1cccc(F)c1)C1CCN(c2cc(C(F)(F)F)ncn2)CC1", "CC50": "19.3 µM [falling, partial curve]"},
      {"molecule": "Clc1ccc(CN2CCC3(CC2)CC(c2cccnc2)=NO3)cc1", "CC50": "24.1 µM [falling, partial curve]"},
      {"molecule": "Cc1ccc(OCC(=O)N2CCCC(c3nn(C)c(=O)n3C(C)C)C2)cc1", "note": "(stereo not given)", "CC50": "27.3 µM [falling, single point]"},
      {"molecule": "COc1ccc(C(=O)N2CCCN(c3cc(-c4ccc(Br)cc4)[nH]n3)CC2)cc1F", "CC50": "21.7 µM [falling, partial curve]"},
      {"molecule": "COc1ccc(C)cc1NC(=O)Cn1c(N(C)Cc2ccccc2)nc(C)cc1=O", "CC50": "24.3 µM [falling, partial curve]"},
      {"molecule": "O=C(c1ccc(Cl)cc1)N1CCCC(n2cc(-c3nc(-c4ccccc4)no3)nn2)C1", "note": "(stereo not given)", "CC50": "19.3 µM [falling, partial curve]"},
      {"molecule": "COc1ccc(NC(=O)c2cc3n(n2)CC(c2ccc(Br)cc2)OC3)cc1OC", "note": "(stereo not given)", "CC50": "30.6 µM [falling, single point]"},
      {"molecule": "COc1ccc(N2CCN(c3nc(C(=O)NCc4cccc(C)c4)cs3)CC2)cc1", "CC50": "19.3 µM [falling, partial curve]"},
      {"molecule": "O=C(Nc1ccon1)[C@@H]1C[C@@H](c2ccc(F)cc2)N(Cc2ccccc2)C1", "CC50": "35.3 µM [falling, partial curve]"},
      {"molecule": "O=C(c1ccc(F)c(F)c1)N1CCN(C(=O)c2nnn3c2COC(c2ccc(Cl)cc2)C3)CC1", "note": "(stereo not given)", "CC50": "15.3 µM [falling, partial curve]"},
      {"molecule": "O=C1N(Cc2cccnc2)C[C@H]2CN(Cc3ccc(C(F)(F)F)cc3)CCN12", "CC50": "15.7 µM [falling, partial curve]"},
      {"molecule": "CC1(C)[C@H](Cc2cc(-c3ccc(F)cc3)on2)C[C@@H]1NS(C)(=O)=O", "CC50": "35.3 µM [falling, single point]"},
      {"molecule": "CC(=O)Nc1ccc(S(=O)(=O)N[C@H]2CO[C@H]3[C@@H]2OC[C@H]3OC(=O)Nc2ccc(Oc3ccccc3)cc2)cc1", "CC50": "12.2 µM [falling, partial curve]"},
      {"molecule": "COc1ccc(C(=O)N2CCCN(c3cc(-c4ccc(F)cc4)[nH]n3)CC2)c(C)c1", "CC50": "13.7 µM [falling, partial curve]"},
      {"molecule": "Nc1nc(C2CC(O)C2)cc(N2CCC(Cc3ccc(F)cc3)CC2)n1", "note": "(stereo not given)", "CC50": "17.2 µM [falling, partial curve]"},
      {"molecule": "O=C(Cc1c[nH]c2ccccc12)N1CCCN(c2cc(-c3ccc(Br)cc3)[nH]n2)CC1", "CC50": "21.7 µM [falling, partial curve]"},
      {"molecule": "COc1cc(NC(=O)Cn2c(N(C)Cc3ccccc3)nc(C)cc2=O)cc(OC)c1", "CC50": "15.3 µM [falling, partial curve]"},
      {"molecule": "CN(Cc1ccc(N2CCCCC2)cc1)C(=O)c1ccc2c(c1)C(O)CCCCCN2C", "note": "(stereo not given)", "CC50": "21.7 µM [falling, partial curve]"},
      {"molecule": "COc1ccc(-c2noc(CC3CCN(C(=O)Cc4ccccc4Cl)CC3)n2)cc1", "CC50": "21.7 µM [falling, partial curve]"},
      {"molecule": "CC1=NS(=O)(=O)N(C)C=C1C(=O)OCc1nc(C2CCCCC2)no1", "CC50": "19.3 µM [falling, partial curve]"},
      {"molecule": "COc1ccc(CC(=O)NC2CCN(c3cc(-c4ccc(F)cc4)[nH]n3)C2)cc1OC", "note": "(stereo not given)", "CC50": "21.7 µM [falling, partial curve]"},
      {"molecule": "O=C(Nc1ccc(F)cc1)c1cc2n(n1)CC(c1ccc3c(c1)OCO3)OC2", "note": "(stereo not given)", "CC50": "30.6 µM [falling, partial curve]"}
    ]}
  ]
}
